Experimental data from PubChem BioAssay AID493208 (National Center for Advancing Translational Sciences (NCATS), 2011).
The campaign covered roughly 44,000 compounds. About 340 (0.77%) were called active. About 5% were inconclusive and are not listed. Calls follow the shape of the dose curve; as a rule, active = well fitted inhibition curve with a large enough effect; inconclusive = small, poorly fitted or top-dose-only effect; inactive = flat fitted curve, though single readings scatter. The list shows a part of the results.

Test: Acumen qHTS Assay for Inhibitors of the mTORC1 Signaling Pathway in MEF (Tsc2-/-, p53-/-) Cells: Sytravon;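 also: plate controls were DMSO for no effect and rapamycin for full effect; nearly all actives have a fitted effect of over 50% in size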
Conditions: phospho-rpS6 immunofluorescence/PI, 24 h; series mostly up to 38.3 µM; activity change, negative = inhibition: at the top concentration
How it was run: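 Immunofluorescence of rpS6 phosphorylation in Tsc2-/-, p53-/- MEFs after 24 h compound exposure, normalized to propidium iodide signal. Activity is expressed as % positive cells, thresholded with 7.5 nM rapamycin.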

| Structure (SMILES) | activity change, negative = inhibition |
| --- | --- |
| O=C(Nc1ccc2nc(SCC(=O)N3CCOCC3)sc2c1)c1ccc(F)cc1 | inactive: 2% |
| COc1cccc(C(=O)Nc2ccc3oc(-c4ccc5ccccc5c4)nc3c2)c1 | inactive: -2.49% |
| COc1cc(OC)cc(-c2nc3nc(C)c(CCC(=O)Nc4ccc(Cl)cc4)c(C)n3n2)c1 | inactive: 2.25% |
| CCCn1cnc2cc(NCc3ccc(OC)cc3OC)ccc21 | inactive: -17.9% |
| Cc1cc(=O)oc2cc(OCC(=O)Nc3ccc(O)c(C(=O)O)c3)ccc12 | inactive: -10.5% |
| CCOc1ccc(CC(=O)N2CCc3cc(OC)c(OC)cc3C2COc2ccc3c(C)cc(=O)oc3c2)cc1 (stereo not drawn) | inactive: -19.4% |
| CC(C)CNS(=O)(=O)c1ccc(N2CCCCS2(=O)=O)cc1 | inactive: 3.64% |
| CCOc1ccc(NC(=O)CCc2c(C)nc3cc(-c4ccc(Cl)cc4)nn3c2C)cc1 | inactive: 1.6% |
| CCCCCn1c(=O)[nH]c2cc(C(=O)NCc3ccccc3)ccc2c1=O | inactive: -5.77% |
| Cc1ccc(CNC(=O)CS(=O)(=O)Cc2nc(-c3ccccc3C)oc2C)cc1 | inactive: -0.515% |
| CCCOc1ccc(NC(=O)C(=O)NCCCN2CCOCC2)cc1 | inactive: -20.1% |
| Cc1cccc(Cn2c(SCc3ccc(C(=O)NC4CCCC4)cc3)nc3ccncc32)c1 | inactive: -3.79% |
| COc1ccc(CNC(=O)Cc2c(C)c3c(cc(C)c4c(C)c(C)oc43)oc2=O)cc1OC | inactive: -0.84% |
| Cc1cccc(-c2noc(CNC(=O)c3ccccc3Br)n2)c1 | inactive: -3.6% |
| Cc1ccc(NC(=O)c2sc(-n3nc(C)c(Cc4ccc5c(c4)OCO5)c3C)nc2C)cc1Cl | inactive: 0.332% |
| Cc1cccc(NC(=O)C2CCN(c3cnccn3)CC2)c1 | inactive: -4.84% |
| COc1ccc(Cn2c(=O)c3ccccc3n3c(-c4cccc(OC)c4OC)nnc23)cc1 | inactive: 0.0043% |
| COc1ccc(CC(=O)Nc2ccc3nc(N4CCCCC4)cc(C)c3c2)cc1 | inactive: 0% |
| CC1CCN(S(=O)(=O)c2ccc3c(c2)oc(=O)n3CC(=O)O)CC1 | inactive: -6.71% |
| CCOC(=O)c1c(NC(C)=O)c2c3c(sc2n1Cc1nc(-c2ccccc2Cl)oc1C)CCCC3 | inactive: -5.65% |
| Cc1ccc(CNC(=O)c2cc3c(s2)-c2c(C)cccc2OC3)cc1 | inactive: -4.95% |
| COc1ccc2c(c1)c1c(c(=O)n(Cc3ccccc3)c(=O)n1CC(=O)NCc1ccccc1)n2C | inactive: 4.04% |
| Cc1cc(C)cc(NC(=O)N2CCN(c3cc(-c4noc(C)n4)ccc3C)CC2)c1 | inactive: -1.07% |
| CCOCCCNC(=O)c1ccc(-n2c(-c3ccccc3)cc3c2CCCCC3)cc1 | inactive: -8.07% |

| Structure (SMILES) | activity change, negative = inhibition |
| --- | --- |
| CCC(=O)N1CCc2cc(Br)cc(S(=O)(=O)CCC(=O)Nc3cccc(C)c3C)c21 | inactive: -23.1% |
| COc1ccccc1NC(=O)c1sc2nc3c(cc2c1N)CN(Cc1ccccc1)CC3 | inactive: -6.83% |
| O=C(CSc1nc(=O)[nH]c2c1CCCC2)NCc1ccc(F)cc1 | inactive: -3.47% |
| CCOC(=O)c1c(C)c(-c2ccccc2)n(CC(=O)NCCc2cccc(C)c2)c1C | inactive: -1.06% |
| COCCn1c(C)cc(O)c(C(c2ccc(F)cc2)N2CCN(c3ccccc3)CC2)c1=O (stereo not drawn) | inactive: 9.64% |
| COc1ccc(CC(=O)NCCS(=O)(=O)N2CCN(c3ccc(F)cc3)CC2)cc1OC | inactive: -0.0481% |
| N#Cc1ccccc1Cn1cnc2nc3c(cc2c1=O)CCCC3 | inactive: -10.6% |
| CCc1nc(C)cn1S(=O)(=O)c1ccc(Cl)c(Cl)c1OC | inactive: -16.7% |
| Cc1nnc2c(N3CCN(c4ccccc4F)CC3)nc3ccc(C(=O)c4ccccc4)cc3n12 | inactive: 0% |
| Cc1cccc(CC(=O)NCc2nc3cccnc3n2Cc2ccc(F)cc2)c1 | inactive: -0.884% |
| CCc1cc(=O)[nH]c(SCc2nc(-c3ccccc3)no2)n1 | inactive: 0.65% |
| Cc1cccc(C(=O)NC2=NC(c3ccc(Cl)cc3)CC(=O)N2)c1 (stereo not drawn) | inactive: -8.94% |
| O=C(Nc1cccc(Cl)c1)C1CCCN(c2ncnc3c2nc2n3CCCCC2)C1 (stereo not drawn) | inactive: -12.1% |
| CCOC(=O)C1CCC(CN(Cc2ccc(OC)cc2)S(=O)(=O)c2ccc(F)c(C(=O)Nc3c(C)cccc3C)c2)CC1 (stereo not drawn) | inactive: 6.43% |
| O=C(Cn1cnc2c(nc3n2CCCCC3)c1=O)Nc1ccc(F)c(Cl)c1 | inactive: -5.62% |
| CS(=O)(=O)Nc1ccccc1C(=O)OCc1cc(=O)n2nc(C3CCCCC3)sc2n1 | inactive: 0% |
| Cc1cc(F)ccc1NC(=O)CS(=O)(=O)c1cccc2nsnc12 | inactive: -1.67% |
| Cc1ccccc1Nc1c(-c2ccccc2)nc2cccc(C)n12 | inactive: 3.85% |
| CSc1ccc(CCNC(=O)c2cc3cc(S(=O)(=O)N4CCCCC4)ccc3n2C)cc1 | inactive: 2.18% |
| COc1ccc(CNc2nc(SCc3ccccc3Cl)nc3ccccc23)cc1 | inactive: 1.87% |
| COc1ccc(N2CC(NC(=O)C3CCCC3)CC2=O)cc1OC (stereo not drawn) | inactive: -0.393% |
| COc1ccc(CCNC(=O)c2cn(C)c3ccc(S(=O)(=O)N(C)C)cc3c2=O)cc1OC | inactive: 5.7% |
| CC1CCCN(S(=O)(=O)c2cc3c4c(c2)CC(=O)N4CCC3)C1 (stereo not drawn) | inactive: -8.87% |
| CC(C)c1ccc(NC(=O)Cn2nnc(C(=O)NCc3ccc(Cl)cc3)c2N)cc1 | inactive: -0.203% |
